# Laboratory results: the supplement of paper PMC10369915
# This is one part of the list. Rule as the data show it: active = 3.2 or more and inactive = the rest. Only a few entries rise above the background.
# What was measured:
# Assay in all cases: enrichment score (SH2-bound / input frequency) (ratio); bacterial display of known human phosphotyrosine sites (pTyr-Var adds point mutants) read by sequencing; higher = stronger binding; tyrosines were phosphorylated by kinases first
# Details in all cases: peptide library: pTyr-Var
# SHP2 C-SH2 domain E139D = target: SHP2 C-SH2 domain E139D
# [1] = target: SHP2 C-SH2 domain wild-type
# SHP2 N-SH2 domain L43F = target: SHP2 N-SH2 domain L43F
# SHP2 N-SH2 domain T42A = target: SHP2 N-SH2 domain T42A
# SHP2 N-SH2 domain T52S = target: SHP2 N-SH2 domain T52S
# [2] = target: SHP2 N-SH2 domain wild-type
# 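Also: displayed peptides selected on beads carrying the immobilized SH2 domain, with library peptides lacking any tyrosine serving as negative controls.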
Binder,enrichment score (SHP2 C-SH2 domain E139D),enrichment score [1],enrichment score (SHP2 N-SH2 domain L43F),enrichment score (SHP2 N-SH2 domain T42A),enrichment score (SHP2 N-SH2 domain T52S),enrichment score [2]
GVTLLCYGRYN [ADGRD1_Y85_Y85C],inactive: 0.748,inactive: 0.812,inactive: 0.722,inactive: 0.878,inactive: 0.559,inactive: 1.15
GVTLLCFGRFN [ADGRD1_Y85_Y85C_YF],inactive: 1.34,inactive: 1.36,inactive: 1.02,inactive: 0.913,inactive: 1.08,inactive: 1.12
GVTLLYFGRDN [ADGRD1_Y85_Y89D_YF],active: 3.34,inactive: 3.13,inactive: 3.12,inactive: 2.58,inactive: 2.89,active: 3.29
SDPIIYTLENV [ADGRE1_Y534_I539V],inactive: 0.697,inactive: 0.681,inactive: 0.848,inactive: 0.713,inactive: 0.792,inactive: 0.92
LRVKMYNFLRS [ADGRG7_Y760],inactive: 1.52,inactive: 0.894,inactive: 1.28,inactive: 1.25,inactive: 1.11,inactive: 1.09
AVAFLYFKSIG [ADGRL4_Y301_V300L_YF],inactive: 1.24,inactive: 1.38,inactive: 1.44,inactive: 1.25,inactive: 1.02,inactive: 1.76
VAFLYYKSIGP [ADGRL4_Y302_V300L],inactive: 0.571,inactive: 0.655,inactive: 0.585,inactive: 0.574,inactive: 0.544,inactive: 1.17
VAFLFYKSIGP [ADGRL4_Y302_V300L_YF],inactive: 1.02,inactive: 1.55,inactive: 1.25,inactive: 1.36,inactive: 1.7,inactive: 2.3
RMSRSYPTGLA [ADM_Y52_S50R],inactive: 0.444,inactive: 0.586,inactive: 1.19,inactive: 0.533,inactive: 0.544,inactive: 0.53
TEALYYTDDTA [ADPRS_Y75],inactive: 0.618,inactive: 1.02,inactive: 0.883,inactive: 0.879,inactive: 0.459,inactive: 0.963
TEALYYTDDPA [ADPRS_Y75_T79P],inactive: 1.01,inactive: 0.552,inactive: 0.838,inactive: 0.907,inactive: 1.5,inactive: 0.718
LPKEQYLYTKE [AFG3L2_Y614],inactive: 1.22,inactive: 0.915,inactive: 0.969,inactive: 0.79,inactive: 0.81,inactive: 1.55
GGTPLYMDRQG [AGXT_Y194],inactive: 0.765,inactive: 0.701,inactive: 0.783,inactive: 0.587,inactive: 0.788,inactive: 0.816
AKKKMYSRKTK [AGXT_Y231],inactive: 0.344,inactive: 0.282,inactive: 0.293,inactive: 0.343,inactive: 0.193,inactive: 0.276
AKKKMYSCKTK [AGXT_Y231_R233C],inactive: 2.32,inactive: 2.49,inactive: 2.36,inactive: 1.65,inactive: 2.2,inactive: 1.81
REAAAYLHGRL [AGXT_Y297],inactive: 0.931,inactive: 1.01,inactive: 0.835,inactive: 0.849,inactive: 0.74,inactive: 0.875
LIHTKCPQLLP [AHCY_Y143_Y143C],inactive: 1.26,inactive: 1.29,inactive: 1.23,inactive: 1.1,inactive: 1.17,inactive: 1.14
KVKGEYDMTVP [AHNAK_Y964],inactive: 0.957,inactive: 0.442,inactive: 0.739,inactive: 0.678,inactive: 0.783,inactive: 0.832
LHRAHYDLRHT [AHSG_Y314],active: 3.77,inactive: 3.17,active: 3.72,active: 3.87,active: 3.38,inactive: 2.83
